Source: PubChem BioAssay (NCATS)
Inconclusive results, whose numbers are uncertain, are shown with a selection of clear calls. A potency beside an inconclusive call is a rough fit, not a confirmed value. Calls of active or inactive are those of the source. The call rests on the fitted dose curve; in most records, active means well fitted cell-killing curve with a large enough effect; inconclusive means small, poorly fitted or top-dose-only effect; inactive means no such curve, though single readings can be large or run the other way. Where a SMILES comes first, the peptide text is derived from it. [ ]: non-standard residue; d: D form. The star is where a group is joined. Sta = CC(C)C[C@H](N)[C@@H](O)CC(=O)O; Isovaleryl = CC(C)CC(=O)*

Assay: qHTS of pediatric cancer cell lines to identify multiple opportunities for drug repurposing: Confirmatory screen for BT-37 cells (AID 1347117); further: nearly all actives have a fitted effect of over 55% in size
Conditions: BT-37 pediatric cancer cells, viability; series mostly up to 45.9 µM
Text: Drug repurposing or repositioning has been offered as a strategy for drug development in oncology programs. This approach has special potential for childhood cancers and other rare or orphan diseases, where the expected return on new drug development has been a disincentive to pharmaceuticals.
In this project we exploit the poly-pharmacology of drugs to discover new indications via phenotypic screening of a panel of 19 well-characterized cell lines derived from solid tumors seen in children and adolescents. The goal is to identify approved drugs with previously unrecognized anticancer properties that has the potential to reveal new mechanisms and biological processes involved in carcinogenesis or drug resistance. We employed a titration-based paradigm (quantitative high-throughput screening or qHTS), where all compounds were tested at multiple concentrations for their effect on cell viability. Concentration-response curves (CRCs) were derived directly from the primary screen, and both potency and efficacy values were used to identify compounds with robust bioactivity profiles. We screened the NIH Chemical Genomics Center (NCGC) Pharmaceutical Collection (NPC) and Mechanism Interrogation Plate (MIPE) small molecule collections of approved and investigational compounds against these cell lines; and measured metabolically active cells after 48 hours of compound treatment as a proxy for cell viability.
Assay Submitter: Nathalia J. Martinez, National Center for Advancing Translational Sciences, National Institutes of Health, Rockville, MD, USA; email: natalia.martinez@nih.gov
[1] Shen, M et al. Quantitative high-throughput phenotypic screening of pediatric cancer cell lines identifies multiple opportunities for drug repurposing. Oncotarget 2017 Dec 19;9(4):4758-4772. PMID 29435139.
The cells were obtained from University of North Carolina (UNC), Pediatric Preclinical Testing Program (PPT), and Coriell Institute (CI).
qHTS cell viability assay:
Cells were assayed in growth media at a density of 500-1,000 cells/well. Five microliters of cells were dispensed into 1,536-well, white, solid-bottom, TC-treated plates (Greiner Bio One) using a multidrop dispenser and incubated at 37 degrees C, 5% CO2, under a humidified atmosphere for 5 hours. Twenty-three nanoliters of compounds and controls (neutral control DMSO or positive control bortezomib at final concentration of 2.3 µM) were subsequently transferred by Kalypsys pintool. For primary screens, the MIPE collection was tested at 11-point dilutions (final concentrations range from 0.78 nM to 46 µM) and the NPC collection at 8-point dilutions (final concentrations range from 0.59 nM to 46 µM). Compounds tested in follow-up screens were assayed at 11-point dilutions. Cells were incubated for 48 hours, followed by addition of 3 µL of CellTiter-Glo (Promega). After a 15 min incubation at room temperature, samples were analyzed for luminescence intensity using a ViewLux High-throughput CCD imager equipped with clear filters.
Potency means the concentration at half of the fitted maximal effect; tags describe the fitted curve by direction and shape.

Row | SMILES | Potency
1 | CC(S)C(=O)NCC(=O)O (stereo not given) | inactive
2 | COc1cc([C@@H]2c3cc4c(cc3[C@H](O)[C@H]3COC(=O)[C@@H]23)OCO4)cc(OC)c1OC | active: 1.17 µM
3 | Oc1ccc(-c2nc(-c3ccc(F)cc3)c(-c3ccncc3)[nH]2)cc1 | active: 0.737 µM
4 | CCCC1OC2C[C@@H]3[C@H]4CCC5=CC(=O)C=C[C@]5(C)[C@H]4C(O)C[C@]3(C)[C@]2(C(=O)CO)O1 (stereo not given in full) | inconclusive: 7.37 µM [cytotoxic, partial curve, poor fit]
5 | CCN(CCO)CCCC(C)Nc1ccnc2cc(Cl)ccc12 (stereo not given) | inactive
6 | Nc1ccn([C@@H]2O[C@H](CO)[C@@H](O)[C@H]2O)c(=O)n1 | active: 0.329 µM
7 | COc1ccc(C(=O)CC(=O)c2ccc(C(C)(C)C)cc2)cc1 | inconclusive: 7.37 µM [cytotoxic, partial curve, poor fit]
8 | Nc1nc2c(ncn2COCCO)c(=O)[nH]1 | inconclusive: 26.1 µM [cytotoxic, partial curve]
9 | CC1(C)C(=O)N(CCN2CCC(C(=O)c3ccc(F)cc3)CC2)c2ccccc21 | inactive
10 | CN(C)CC[C@H](CSc1ccccc1)Nc1ccc(S(=O)(=O)NC(=O)c2ccc(N3CCN(Cc4ccccc4-c4ccc(Cl)cc4)CC3)cc2)cc1[N+](=O)[O-] | inconclusive: 18.5 µM [cytotoxic, partial curve]
11 | Nc1nc(OCc2ccccc2)c2[nH]cnc2n1 | inconclusive: 29.3 µM [cytotoxic, single point]
12 | Clc1ccc(C(c2ccccc2Cl)C(Cl)Cl)cc1 (stereo not given) | inconclusive: 20.8 µM [cytotoxic, partial curve, poor fit]
13 | CC[C@H](NC(=O)[C@H](C)NC)C(=O)N1C[C@@H](O)C[C@H]1Cc1c(-c2[nH]c3cc(F)ccc3c2C[C@H]2C[C@H](O)CN2C(=O)[C@H](CC)NC(=O)[C@H](C)NC)[nH]c2cc(F)ccc12 | inconclusive: 2.33 µM [cytotoxic, full curve, poor fit]
14 | O=c1[nH]cnc2c1ncn2[C@H]1CC[C@@H](CO)O1 | inactive
15 | CC1(C)O[C@@H]2C[C@H]3[C@@H]4CCC5=CC(=O)C=C[C@]5(C)[C@@H]4[C@@H](O)C[C@]3(C)[C@]2(C(=O)CO)O1 | inactive
16 | C[C@]1(c2nc3c(C(N)=O)cccc3[nH]2)CCCN1 | inconclusive: 26.1 µM [cytotoxic, single point]
17 | O=C(O)c1ccc(-c2cc3cccnc3c(-c3ccc4nonc4c3)n2)cc1 | inconclusive: 1.04 µM [cytotoxic, full curve, poor fit]
18 | CN(C)c1ccc(C2Nc3ccc4ccccc4c3C3=C2C(=O)CC(C)(C)C3)cc1Br (stereo not given) | inconclusive: 24 µM [cytotoxic, partial curve]
19 | O=C(NC1CC1)c1cccc(-c2ccc3c(NC(=O)C4CC4)n[nH]c3c2)c1 | inconclusive: 8.27 µM [cytotoxic, full curve]
20 | CS(=O)(=O)OCCCCOS(C)(=O)=O | inconclusive: 23.3 µM [cytotoxic, partial curve, poor fit]

Row | SMILES | Potency
21 | CN1N=C(N)c2cn([C@@H]3O[C@H](COP(=O)(O)O)[C@@H](O)[C@@H]3O)c3ncnc1c23 | inconclusive: 3.29 µM [cytotoxic, full curve]
22 | CN(C)c1ccc(O)c2c1C[C@H]1C[C@H]3[C@H](N(C)C)C(=O)C(C(N)=O)=C(O)[C@@]3(O)C(=O)C1=C2O | inactive
23 | Cc1nnc(C(C)C)n1C1C[C@H]2CC[C@@H](C1)N2CC[C@H](NC(=O)C1CCC(F)(F)CC1)c1ccccc1 (stereo not given in full) | inconclusive: 1.31 µM [cytotoxic, full curve, poor fit]
24 | CC1(C)O[C@H]2C[C@@H]3[C@H]4CCC5=CC(=O)C=C[C@]5(C)[C@@]4(F)[C@@H](O)C[C@]3(C)[C@]2(C(=O)CO)O1 | inactive
25 | CC(C)CC(=O)N[C@H](C(=O)N[C@H](C(=O)N[C@@H](CC(C)C)[C@@H](O)CC(=O)N[C@@H](C)C(=O)N[C@@H](CC(C)C)[C@@H](O)CC(=O)O)C(C)C)C(C)C (Isovaleryl-VV[Sta]A[Sta]-OH) | inconclusive: 5.85 µM [cytotoxic, full curve]
26 | CC(C)(C)c1[nH]cnc1C=c1[nH]c(=O)c(=Cc2ccccc2)[nH]c1=O | active: 0.0143 µM
27 | Cc1ccccc1-n1c(Cn2nc(-c3cccc(O)c3)c3c(N)ncnc32)nc2cccc(C)c2c1=O | inconclusive: 26.1 µM [cytotoxic, partial curve, poor fit]
28 | Cc1nc(Nc2n[nH]c3c2CN(C(=O)N[C@H](CN(C)C)c2ccccc2)C3(C)C)c2sccc2n1 | inconclusive: 0.0737 µM [cytotoxic, full curve, poor fit]
29 | COc1cc(C(C)=O)ccc1OCCCN1CCC(c2noc3cc(F)ccc23)CC1 | inconclusive: 29.3 µM [cytotoxic, single point]
30 | CC=C(C)C(=O)O[C@H]1C(C)=C[C@]23C(=O)[C@@H](C=C(CO)[C@@H](O)[C@]12O)[C@H]1[C@@H](C[C@H]3C)C1(C)C | inactive
31 | CN1CCN(Cc2ccc(NC(=O)Nc3ccc(Oc4cc(NC(=O)C5CC5)ncn4)cc3)cc2C(F)(F)F)CC1 | active: 0.369 µM
32 | COc1ccc2c(Oc3ccc(NC(=O)c4c(C)n(CC(C)(C)O)n(-c5ccccc5)c4=O)cc3F)ccnc2c1 | inactive
33 | NC1=N[C@@]2(c3cc(NC(=O)c4ccc(F)cn4)ccc3F)COC[C@@H]2CS1 | inactive
34 | NC(=O)c1ccc(I)c([N+](=O)[O-])c1 | inactive
35 | O=C(Nc1cccc(Br)c1)c1cccc(S(=O)(=O)N2CCCCCC2)c1 | inconclusive: 26.1 µM [cytotoxic, partial curve, poor fit]
36 | CC(CCc1ccc(O)cc1)NCCc1ccc(O)c(O)c1 (stereo not given) | inconclusive: 2.93 µM [cytotoxic, full curve, poor fit]
37 | COc1ccc(-c2nc(N3CCOCC3)c3sc(CN(C)c4ncc(C(=O)NO)cn4)cc3n2)cn1 | inconclusive: 0.585 µM [cytotoxic, full curve, poor fit]
38 | CN[C@@H](C)C(=O)N[C@H]1CN(C(=O)CC(C)C)CC[C@H]2CC[C@@H](C(=O)NC(c3ccccc3)c3ccccc3)N2C1=O | inconclusive: 20.8 µM [cytotoxic, partial curve]
39 | CC1(C)CCC[C@@]2(C)[C@@H]1CC[C@@]1(C)OC(=O)C[C@H]21 | inactive
40 | CC1(C)S[C@H]2[C@H](NC(=O)[C@@H](N)c3ccc(O)cc3)C(=O)N2[C@@H]1C(=O)O | inactive
